Data as given in PubChem BioAssay AID488969 (Vanderbilt High Throughput Screening Facility, 2010).
Whole data set: some 110,000 compounds, median “z-score” near -0.1, cut for the highest 2% near 2. This is one part of the list.

Biological target: Metabotropic glutamate receptor 8 (Rattus norvegicus) (UniProt P70579)
Assay: rat mGluR8 modulators via GIRK flux, primary screen, cell-based, thallium flux, HTS (AID 488969)
Conditions: HEK293 rat mGluR8, GIRK (G protein-gated inwardly rectifying potassium channel) thallium flux, FluoZin2; at 10 µM; stronger effect = higher value

UniProt P70579, sequence (P70579 whole entry, looked up): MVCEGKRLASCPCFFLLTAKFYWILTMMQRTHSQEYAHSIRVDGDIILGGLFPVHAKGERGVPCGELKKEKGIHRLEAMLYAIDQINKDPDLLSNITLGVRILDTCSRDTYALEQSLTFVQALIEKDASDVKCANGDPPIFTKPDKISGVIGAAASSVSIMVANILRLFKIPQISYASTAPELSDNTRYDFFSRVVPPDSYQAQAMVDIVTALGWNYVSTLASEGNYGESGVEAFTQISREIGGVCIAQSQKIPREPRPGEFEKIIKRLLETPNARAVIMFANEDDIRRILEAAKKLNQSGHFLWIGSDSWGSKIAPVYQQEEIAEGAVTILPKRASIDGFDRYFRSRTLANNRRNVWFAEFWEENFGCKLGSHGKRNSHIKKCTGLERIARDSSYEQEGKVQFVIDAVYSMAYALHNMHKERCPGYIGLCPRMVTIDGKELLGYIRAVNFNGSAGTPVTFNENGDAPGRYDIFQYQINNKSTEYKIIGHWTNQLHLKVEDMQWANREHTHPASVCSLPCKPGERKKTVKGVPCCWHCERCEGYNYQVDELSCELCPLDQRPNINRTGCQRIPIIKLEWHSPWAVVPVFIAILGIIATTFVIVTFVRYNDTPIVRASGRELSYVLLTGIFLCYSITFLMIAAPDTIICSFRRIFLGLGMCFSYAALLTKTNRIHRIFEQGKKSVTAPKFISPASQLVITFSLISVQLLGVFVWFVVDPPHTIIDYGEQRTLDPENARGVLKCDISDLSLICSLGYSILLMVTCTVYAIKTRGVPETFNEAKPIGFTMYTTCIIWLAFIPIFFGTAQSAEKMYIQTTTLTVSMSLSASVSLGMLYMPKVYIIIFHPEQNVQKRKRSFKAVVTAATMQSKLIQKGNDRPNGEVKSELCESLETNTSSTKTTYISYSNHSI

**Q.** Which z-score does the source give for COc1ccc(NC(c2ccccc2)P(=O)(Oc2ccccc2)Oc2ccccc2)cc1 (stereo unspecified) here?
**A.** -0.0896

**Q.** Which z-score does the source give for Cc1[nH]c2ccccc2c1CCN here?
**A.** -0.894

**Q.** How did the z-score turn out when COC(=O)c1ccccc1OP1(=O)COc2ccccc2OC1 was run?
**A.** -0.147

**Q.** For O=P(Nc1ccccc1)(Nc1ccccc1)Oc1ccc(Cl)cc1, which z-score is on record?
**A.** -0.0907

**Q.** For CC(=O)NC(Cc1ccc(N(CCCl)CCCl)cc1)C(=O)O (stereo unspecified), which z-score is on record?
**A.** 0.38

**Q.** With CCC12C=CCN3CCC4(c5cc(Br)c(OC)cc5N(C)C4C(O)(C(=O)OC)C1OC(C)=O)C32 (stereo unspecified) as the compound, how does the z-score read?
**A.** -0.463

**Q.** How did the z-score turn out when CC1=C(C(=O)Nc2ccccc2)SCCO1 was run?
**A.** 1.02

**Q.** CC(=O)C1C(=O)NC23CCCCC2C1c1ccccc1O3 (stereo unspecified) was tested. Which z-score did it give?
**A.** 0.359

**Q.** Cc1ccc(N2C(=O)NC(=O)C3(Cc4ccccc4N4CCCC43)C2=O)cc1 (stereo unspecified) was tested. Which z-score did it give?
**A.** -0.319

**Q.** CCOc1ccc(NC(=O)c2c(C)nn(Cc3ccccc3)c2Cl)cc1 was tested. Which z-score did it give?
**A.** 0.114

**Q.** Cc1cccc(-n2c(O)c(/C=C/C=Nc3ccccc3)c(=O)[nH]c2=O)c1 was tested. Which z-score did it give?
**A.** -0.724

**Q.** For C=CCN(c1ccc(C(=O)N(CC)CC)cc1)S(C)(=O)=O, which z-score is on record?
**A.** 0.139

**Q.** CC1CN(c2ccc([N+](=O)[O-])c3cccnc23)CC(C)N1 (stereo unspecified) was tested. Which z-score did it give?
**A.** 0.0267

**Q.** For CCn1c(O)c(C=Nc2ccc(S(N)(=O)=O)cc2)c(=O)[nH]c1=S, which z-score is on record?
**A.** -0.0715

**Q.** For Cn1c(O)c(C=NCCOc2ccc(Cl)cc2)c(=O)n(C)c1=O, which z-score is on record?
**A.** 0.0723

**Q.** How did the z-score turn out when CCN1CCN(C(=O)Cc2coc3ccc4ccccc4c23)CC1 was run?
**A.** -0.146

**Q.** Nc1ccccc1C(=O)OC1CSC1 was tested. Which z-score did it give?
**A.** 0.121

**Q.** CC(C(N)=O)N1CC(c2ccc(Cl)cc2)CC1=O (stereo unspecified) was tested. Which z-score did it give?
**A.** -0.161

**Q.** How did the z-score turn out when CCOC(=O)c1c(-n2c(C)cc(C=C3C(=O)NC(=S)NC3=O)c2C)sc2c1CCCC2 was run?
**A.** -0.312

**Q.** How did the z-score turn out when O=c1c2ccccc2nc(-c2ccco2)n1-c1ccccn1 was run?
**A.** -0.0713

**Q.** How did the z-score turn out when Cc1ccc(N2C(=O)/C(=C/c3ccc(CN(CCC#N)S(C)(=O)=O)o3)C(=O)NC2=S)cc1C was run?
**A.** -0.237

**Q.** COc1cccc(N2C(=O)CC(=O)NC2=O)c1 was tested. Which z-score did it give?
**A.** 0.152

**Q.** With CC(=NCc1cccnc1)c1c(O)n(Cc2ccccc2)c(=O)[nH]c1=O as the compound, how does the z-score read?
**A.** -0.11

**Q.** COC(=O)OCC12CCC(O1)C1(C)C(=O)OCC21 (stereo unspecified) was tested. Which z-score did it give?
**A.** -0.227

**Q.** Which z-score does the source give for CN1CCN(c2ccc([N+](=O)[O-])c(NCc3ccco3)c2)CC1 here?
**A.** 0.0767

**Q.** How did the z-score turn out when O=C(COc1ccc(Cl)cc1)N1CCN(C/C=C/c2ccccc2)CC1 was run?
**A.** -0.0408

**Q.** NP(=O)(OCC(F)(F)F)Oc1ccccc1 (stereo unspecified) was tested. Which z-score did it give?
**A.** -0.13

**Q.** Which z-score does the source give for CCOC(=O)C(O)(c1ccc(NC(=O)c2ccco2)c(OC)c1)C(F)(F)F (stereo unspecified) here?
**A.** -0.0452

**Q.** Cc1nn(Cc2ccccc2)c(C)c1C=C1C(=O)NC(=O)NC1=O was tested. Which z-score did it give?
**A.** 2.1

**Q.** Which z-score does the source give for COc1ccc(OCC(=O)Nc2ccc(Cl)cc2C(=O)c2ccccc2)cc1 here?
**A.** -0.0614

**Q.** With Cc1cccc(C2=NCC(=O)N(CC(=O)NCc3ccco3)c3sc4c(c32)CCCC4)c1 as the compound, how does the z-score read?
**A.** -0.553
